# The full ranking holds about 33,000 sequences; the median of “E-score (-0.5 to 0.5)” is about -0.043, and the highest 2% start at about 0.37. The list shows a part of the results.
# Biological target: T1, Upc2 (UniProt Q12151)
# T1 sequence: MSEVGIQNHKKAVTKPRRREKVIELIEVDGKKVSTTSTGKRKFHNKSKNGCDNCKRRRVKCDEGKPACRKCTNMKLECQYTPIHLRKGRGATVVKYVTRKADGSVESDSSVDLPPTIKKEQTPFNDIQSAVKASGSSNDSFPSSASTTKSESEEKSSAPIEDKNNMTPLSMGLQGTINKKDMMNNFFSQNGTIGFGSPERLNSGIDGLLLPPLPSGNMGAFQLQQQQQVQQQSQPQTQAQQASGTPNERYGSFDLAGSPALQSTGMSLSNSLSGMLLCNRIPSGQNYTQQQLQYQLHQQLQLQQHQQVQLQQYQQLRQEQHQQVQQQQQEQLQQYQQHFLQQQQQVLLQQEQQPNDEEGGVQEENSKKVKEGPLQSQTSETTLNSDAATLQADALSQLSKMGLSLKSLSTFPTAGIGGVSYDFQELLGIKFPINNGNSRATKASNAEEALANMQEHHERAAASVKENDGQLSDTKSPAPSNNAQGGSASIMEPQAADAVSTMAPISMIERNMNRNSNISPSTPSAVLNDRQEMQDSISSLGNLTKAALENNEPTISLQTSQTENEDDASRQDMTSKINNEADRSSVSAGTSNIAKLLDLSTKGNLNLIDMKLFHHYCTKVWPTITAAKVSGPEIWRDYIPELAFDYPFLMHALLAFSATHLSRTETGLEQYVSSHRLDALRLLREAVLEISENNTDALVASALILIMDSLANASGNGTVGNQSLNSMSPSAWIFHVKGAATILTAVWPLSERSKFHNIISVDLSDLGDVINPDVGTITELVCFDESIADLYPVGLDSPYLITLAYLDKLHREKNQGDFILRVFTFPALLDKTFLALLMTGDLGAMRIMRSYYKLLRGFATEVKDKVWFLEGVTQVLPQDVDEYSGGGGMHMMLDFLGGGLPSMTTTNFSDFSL
# Assay: PBM E-score (8-mer binding enrichment) (E-score (-0.5 to 0.5)); higher = stronger / more preferred TF binding; most listed sequences are background and not binding sites
# Conditions: protein concentration: 200 nM; construct: GST-full length
# Outline: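 Universal all-10-mer Agilent arrays, fresh or stripped once, were converted to double-stranded form by primer extension. GST-tagged yeast transcription factors from PURExpress in vitro transcription/translation, full-length or DNA-binding domain only, were applied at about 100-200 nM and detected with fluorescent anti-GST. After masliner normalisation, the Universal PBM Analysis Suite scored each ungapped eight-base word together with its reverse complement by E-score.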
row,Sequence,PBM E-score
1,AGTTACGC,0.0981
2,GCCACGAC,0.0171
3,CTGACCAG,-0.147
4,ATAGACGG,-0.125
5,AGCGAGAG,0.229
6,GAATGCCC,0.0462
7,ATGTGGAG,-0.168
8,CCAGATTC,-0.298
9,CACGCCCG,0.111
10,TCGCAGCA,-0.00639
11,GAAACATC,-0.115
12,ACCTAATC,0.105
13,AAAGATAT,-0.00132
14,GGAAGCAA,-0.0611
15,GACACGGC,-0.187
16,ATCATTTA,0.184
17,CATAAGGC,0.0399
18,ATTGCGCG,0.111
19,AAACCCTG,-0.0046
20,CCCCAGCG,-0.23
21,CACTCGGG,0.0146
22,TACCCCAA,-0.158
23,AGGTGCTG,-0.387
24,AAAATTAG,-0.155
25,AACGAGAC,0.437

row,Sequence,PBM E-score
1,CATACAAA,0.114
2,AATACAGT,-0.0568
3,CTCACGTA,0.141
4,AAGTTTAA,-0.0222
5,CGAACGTC,0.135
6,AAAGGGTT,-0.176
7,ACATACAA,-0.112
8,GACCTGCA,-0.235
9,ATGCCTGA,-0.198
10,ATTAGCCC,-0.138
11,CTCCCAAG,-0.163
12,GTCCTTCA,-0.276
13,CATCCGTC,0.0263
14,AGATTGCC,-0.282
15,CGACAATA,0.212
16,TCGCATAA,0.383
17,GTGATACA,-0.0293
18,ACTCAGGC,-0.25
19,CCTGTCAA,-0.0925
20,AGCACCCT,-0.2
21,GTTATGTA,-0.097
22,ATCCATTG,-0.121
23,GGCATGGA,-0.201
24,AGCGCCAG,0.0891
25,CTGAATGC,-0.251

row,Sequence,PBM E-score
1,AACATATC,0.0754
2,CGGGAGAC,-0.215
3,GCTCGGGA,0.0612
4,AGGAGCTG,-0.439
5,AAGGGCGA,-0.141
6,TCCAGGGA,-0.201
7,CACACTCC,-0.0542
8,ACAGGGCG,0.0317
9,ATCCCGTG,0.0975
10,AAGTAATC,-0.0781
11,CCATGCCA,-0.227
12,AGTGAAAG,-0.16
13,CAAGGTCA,-0.0884
14,ATTCTCGC,-0.118
15,ATGTGTGA,-0.171
16,ATCTTTCC,-0.0675
17,GATACGTA,0.254
18,CCCGTTTC,0.197
19,CAGGATAG,0.0798
20,AGGTGCCC,-0.0887
21,ATGAACAT,-0.0224
22,CAAACTAG,-0.105
23,ATCTTGGC,-0.0793
24,GAACAGTC,0.0834
25,AGAAAGAG,-0.257

row,Sequence,PBM E-score
1,CGGTTACA,0.156
2,CGTGATAG,0.106
3,CATTACCC,-0.19
4,CATCGCCC,-0.0703
5,CTAAACTA,-0.0447
6,CGCCCAAG,-0.0616
7,TCGAATAA,0.257
8,CCAGACAC,0.0022
9,CTCGGTCC,0.179
10,AAGGGCGT,0.0524
11,AGGTAACG,0.0398
12,CATTTTCG,0.0944
13,CACTCTCG,0.175
14,ACAGGCTA,-0.111
15,TGATTAAA,0.0154
16,ACCGAGAT,0.126
17,ATTTTAAG,0.0623
18,CCTGCGAG,-0.206
19,GCTAGACA,-0.184
20,GGATAGAA,0.021
21,CGGCTGTA,-0.137
22,CTCCTGAA,-0.106
23,AACCGAAG,0.202
24,AGACGTAA,0.00819
25,AAGATACC,-0.131

row,Sequence,PBM E-score
1,GCCCTGCA,-0.275
2,CCACCTCC,-0.394
3,ACTTCCGA,-0.024
4,CGTTCAGC,0.396
5,GAATACGC,0.175
6,ACCGTCAA,-0.0393
7,AGGCCCAC,-0.199
8,AAGCCGAC,-0.00759
9,AACTTGGA,0.0023
10,GGGATGAC,-0.14
11,CGTCATAG,-0.0726
12,GAACATAA,0.0237
13,TCACCGCA,-0.186
14,CCAGCTGG,0.103
15,AACCGCGA,0.05
16,AGGGCGAC,-0.157
17,AGTAGTGC,-0.241
18,GCCTAAAC,0.265
19,ATGGCCGA,-0.12
20,GGCGGCAA,-0.287
21,TCGGGTAA,0.151
22,CGGCCTGC,-0.0561
23,AGCGCGTG,0.137
24,GCGGAGAC,-0.0396
25,ATTCCACG,-0.163

row,Sequence,PBM E-score
1,TGACACCA,-0.217
2,CGGAAGCC,-0.0575
3,AGTGGCGA,-0.073
4,GCAACATA,0.0896
5,GTGTCTGA,-0.145
6,GCGAAGAA,0.0788
7,GTGTCCTA,-0.0178
8,GACTAAGA,-0.0274
9,AAGACGTA,0.212
10,AAGCGGAT,-0.0988
11,ATGAGGTA,-0.0929
12,TCCGCACA,-0.183
13,ATAAAAAA,0.0851
14,CGTGGCGA,-0.0678
15,GGGTACTA,0.156
16,AACGTTAG,0.043
17,CACTCCTA,-0.26
18,CTAAATTC,0.0497
19,CGGTTCAC,-0.117
20,CTTCTAAA,0.0332
21,TAGACTGA,-0.094
22,CGATCCAG,0.0415
23,GTTCGGCA,0.0731
24,ATCAGTTA,0.127
25,CTTTTCTA,-0.0661

row,Sequence,PBM E-score
1,AGGTGGAT,-0.111
2,ACGATGAT,0.332
3,AAAATACC,-0.00403
4,AAGACCCC,-0.132
5,TAATGGAA,-0.041
6,CGAATCAC,0.0456
7,ACTCACCA,-0.181
8,ACGCTGAG,0.0209
9,CTAAGAGC,0.0275
10,AACCTCGA,0.0605
11,GTGTTCTA,0.162
12,ACGGCGTA,0.261
13,ATTTGAGA,0.0579
14,AAGGAACC,0.235
15,AAAAGTAT,0.0531
16,AATCAACC,-0.0403
17,AGAAGTGC,-0.0394
18,AGCAAGCT,-0.253
19,CGATCGCA,0.212
20,AGGTCCGC,-0.267
21,AAAGCTAA,-0.0248
22,GGACCTGA,-0.131

# — the supplement of paper PMC3334620
